Among all 310,000 compounds or so, about 2,200 (0.71%) showed an effect of 50% or more. Effects have a minus sign here. This is one part of the list.
What follows are compounds tested against human ether-à-go-go-related gene (hERG) potassium channel (human, UniProt Q12809) (assay: primary screen, population patch clamp on CHO cells stably expressing hERG).
Chain of human ether-à-go-go-related gene (hERG) potassium channel (Q12809 whole entry, looked up): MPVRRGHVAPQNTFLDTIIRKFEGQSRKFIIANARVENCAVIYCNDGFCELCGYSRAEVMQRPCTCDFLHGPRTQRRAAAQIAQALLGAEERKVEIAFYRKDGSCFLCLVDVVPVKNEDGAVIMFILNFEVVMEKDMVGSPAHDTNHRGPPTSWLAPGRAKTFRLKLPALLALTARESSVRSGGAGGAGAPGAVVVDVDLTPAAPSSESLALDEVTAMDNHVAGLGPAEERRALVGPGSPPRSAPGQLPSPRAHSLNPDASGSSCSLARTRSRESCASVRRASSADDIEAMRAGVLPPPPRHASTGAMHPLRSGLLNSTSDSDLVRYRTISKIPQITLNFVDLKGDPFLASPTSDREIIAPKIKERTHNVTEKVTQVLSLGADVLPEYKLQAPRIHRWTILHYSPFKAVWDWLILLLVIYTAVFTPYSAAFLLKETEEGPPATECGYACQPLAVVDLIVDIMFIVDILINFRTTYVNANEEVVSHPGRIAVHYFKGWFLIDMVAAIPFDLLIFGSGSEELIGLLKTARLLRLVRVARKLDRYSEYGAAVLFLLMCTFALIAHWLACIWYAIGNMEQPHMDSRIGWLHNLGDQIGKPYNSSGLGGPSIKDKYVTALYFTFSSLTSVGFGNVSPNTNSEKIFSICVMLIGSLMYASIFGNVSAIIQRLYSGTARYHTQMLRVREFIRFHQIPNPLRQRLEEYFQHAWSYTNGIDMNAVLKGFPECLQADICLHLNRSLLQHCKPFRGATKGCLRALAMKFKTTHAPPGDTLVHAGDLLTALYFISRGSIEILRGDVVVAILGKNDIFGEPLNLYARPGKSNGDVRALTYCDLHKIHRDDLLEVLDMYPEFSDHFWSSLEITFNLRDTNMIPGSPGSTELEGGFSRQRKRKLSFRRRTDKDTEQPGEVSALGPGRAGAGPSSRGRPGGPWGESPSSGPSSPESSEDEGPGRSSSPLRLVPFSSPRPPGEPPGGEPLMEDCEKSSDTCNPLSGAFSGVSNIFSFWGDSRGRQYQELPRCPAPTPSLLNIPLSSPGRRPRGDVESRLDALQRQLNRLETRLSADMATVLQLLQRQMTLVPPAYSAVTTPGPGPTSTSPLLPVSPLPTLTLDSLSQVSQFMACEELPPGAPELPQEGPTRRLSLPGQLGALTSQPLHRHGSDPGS

Compared with `O=C(O)CSc1nnc(Cn2cnc3ccccc32)n1CCc1ccccc1`, `Cc1cc(C(=O)NNC(=O)c2ccccc2F)c2ccccc2n1` is lower in “hERG current change (%, negative = inhibition) at 1uM” value: 20.5% for the first, 9.03% for the second.

Compared with `COc1ccccc1NC(=O)NC1CCCCCCC1`, `O=C(CNC1CCCCC1)Nc1cccc([N+](=O)[O-])c1` is lower in “hERG current change (%, negative = inhibition) at 1uM” value: 22.5% for the first, 9.45% for the second.

First: Cc1ccc(-n2ncc3c(=O)[nH]c(SCC(=O)N4CCCCC4)nc32)cc1
Second: CCC1CN(C(=O)N2CCC(C(=O)NCc3cccc(OC)c3OC)CC2)c2cc(C)ccc2O1 (centres unmarked)
The “hERG current change (%, negative = inhibition) at 1uM” value of the first is lower: 2.74% for the first, 11.1% for the second.

First: C=CCNC(=O)CCCCC(=O)NCC=C
Second: CN(Cc1ccc(Br)s1)C(=O)CNC(=O)c1ccc2c(c1)OCO2
The “hERG current change (%, negative = inhibition) at 1uM” value of the first is higher: 7.66% for the first, 5.14% for the second.

Compared with `CCOC(=O)C1(Cc2cccc(OC)c2)CCN(CCO)CC1`, `CC1CC(C)CN(CCOc2ccc(Cl)cc2Cl)C1.O=C(O)C(=O)O` (centres unmarked) is lower in “hERG current change (%, negative = inhibition) at 1uM” value: 2.3% for the first, -35.5% for the second.

Compared with `Cc1ccc(CNc2nc3ccc(C)cc3n3cnnc23)cc1`, `CC(C)Oc1ccc(Cn2c(=O)sc3ccccc32)cc1` is lower in “hERG current change (%, negative = inhibition) at 1uM” value: 6.78% for the first, 6.56% for the second.

First: CC(C)CN(C(=O)C1CCCO1)C1CCS(=O)(=O)C1 (centres unmarked)
Second: Nn1c(SCC(=O)N2CCOCC2)nnc1C1CC1
The “hERG current change (%, negative = inhibition) at 1uM” value of the first is lower: 6.58% for the first, 24.7% for the second.

Compared with `Cc1cc(C)nc(NC(N)=NC(C)c2ccccc2)n1` (centres unmarked), `Cc1c(C(=O)Nc2nc(-c3ccccn3)cs2)oc2ccccc12` is higher in “hERG current change (%, negative = inhibition) at 1uM” value: 11.2% for the first, 13.1% for the second.

Going from `c1cnn(-c2cc(N3CCOCC3)ncn2)c1` to `N#Cc1c(N2CCOCC2)nc(N2CCCCC2)c2c1CCN(C1CCCCC1)C2`, the “hERG current change (%, negative = inhibition) at 1uM” value falls from 19.2% to 2.19%.

Compared with `O=C(COC(=O)c1nc(Cl)ccc1Cl)c1ccccc1Cl`, `O=C(CN1C(=O)C(=O)N(Cc2ccccc2)C1=O)Nc1ccc(F)c(Cl)c1` is higher in “hERG current change (%, negative = inhibition) at 1uM” value: -0.146% for the first, 11% for the second.

Compared with `O=C(CO/N=C/c1ccc(OC(F)F)cc1)N1CCc2ccccc21`, `O=C(c1cccs1)N1CCN(C(=O)c2ccco2)c2ccccc2C1` is higher in “hERG current change (%, negative = inhibition) at 1uM” value: 4.49% for the first, 5.51% for the second.

Compared with `Clc1ncc(CSc2ccccc2)s1`, `CCN(CC)S(=O)(=O)c1cccc(NC(=O)c2ccc(SC)cc2OC)c1` is lower in “hERG current change (%, negative = inhibition) at 1uM” value: 5.7% for the first, -4.35% for the second.

Going from `O=[N+]([O-])c1ccc(N2CCN(C(=S)Nc3ccc(F)cc3)CC2)cc1` to `Cc1cc2oc(=O)cc(CSc3nnc(C)n3N)c2cc1C(C)C`, the “hERG current change (%, negative = inhibition) at 1uM” value rises from -23.8% to 6.87%.

Reference: publication PMC4336329 (PLoS ONE, 2015)
